The full ranking holds about 33,000 sequences; the median of “E-score (-0.5 to 0.5)” is about -0.032, and the highest 2% start at about 0.36. Some of the results follow.
Molecular target: T1, Sko1 (UniProt Q02100)
T1 sequence: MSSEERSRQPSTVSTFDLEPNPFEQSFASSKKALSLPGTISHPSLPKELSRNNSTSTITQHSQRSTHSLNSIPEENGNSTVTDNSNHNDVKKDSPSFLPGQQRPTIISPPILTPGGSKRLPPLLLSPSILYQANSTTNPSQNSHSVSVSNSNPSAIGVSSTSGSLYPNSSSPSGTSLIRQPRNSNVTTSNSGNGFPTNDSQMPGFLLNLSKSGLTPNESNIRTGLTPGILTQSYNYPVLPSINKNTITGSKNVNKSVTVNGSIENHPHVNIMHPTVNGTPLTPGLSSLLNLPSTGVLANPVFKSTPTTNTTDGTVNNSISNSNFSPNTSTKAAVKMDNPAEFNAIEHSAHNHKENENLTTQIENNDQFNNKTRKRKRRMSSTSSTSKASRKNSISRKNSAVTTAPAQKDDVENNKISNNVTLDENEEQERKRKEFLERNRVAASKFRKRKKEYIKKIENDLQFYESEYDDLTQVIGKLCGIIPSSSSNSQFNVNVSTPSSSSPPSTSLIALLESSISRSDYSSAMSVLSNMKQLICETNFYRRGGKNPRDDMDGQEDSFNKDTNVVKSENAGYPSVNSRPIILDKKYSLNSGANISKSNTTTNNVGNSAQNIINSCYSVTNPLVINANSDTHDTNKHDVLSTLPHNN
Assay: PBM E-score (8-mer binding enrichment) (E-score (-0.5 to 0.5)); higher = stronger / more preferred TF binding; most listed sequences are background and not binding sites
Details: protein concentration: 200 nM; construct: GST-full length
In short: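 Each ungapped eight-base word and its reverse complement, pooled, received an E-score from the Universal PBM Analysis Suite. Underlying scans, normalised with masliner, recorded fluorescent anti-GST bound to GST-tagged yeast transcription factors. These were applied at about 100-200 nM to universal all-10-mer Agilent arrays double-stranded by primer extension.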

Sequence	PBM E-score
TCAAGGAA	-0.0505
ACCACCCA	-0.177
ATGCTCCG	-0.266
AGACTTAC	0.0305
AATTTGGT	0.166
ACAGGTAA	0.117
AATGGATG	0.0616
AATGTTTC	-0.0708
ACACAACA	0.0461
GTTCTGGA	-0.0524
GATATAAC	0.119
GTGGGGGA	-0.282
CTTCCCAA	-0.0745
ATCACCCG	-0.0918
CGATTGGC	-0.162
CTCCAGCC	-0.271
CTCGTCCC	-0.11
ATTATTTG	0.21
ACCTTTCG	-0.149
GAGGCTGA	-0.147
ATATCTCA	0.193
GGCGAGTA	-0.202
GAGTCCGA	-0.11
GCCTAAGA	-0.144
GTGACTAA	0.0839

Sequence	PBM E-score
ACCCACGA	-0.0425
TACGAGTA	0.254
TCTCCTCA	-0.108
AAGTAAGC	0.0436
CCGAGGTC	-0.355
ATCCTTAA	-0.0978
GGAGTCTA	-0.282
TTGACCAA	-0.232
ACATGGCC	-0.00558
ACAACCTA	0.0669
CGAAGGAG	-0.00836
ACGAGTCG	0.0261
CGTAACAA	0.344
ATAAACTA	0.157
ACTCGAAA	0.0248
ACGTCCGC	0.268
TACATCTA	0.19
GAGAGACC	-0.258
ACAACCGT	-0.0828
GTCTCTGA	-0.0137
CGCTTTAA	0.0367
AATGTCAC	0.184
ATTCTGTC	0.0937
ACATAGCT	-0.0675
GTTGTCAA	0.0182

Sequence	PBM E-score
CCCGGTCA	-0.286
GCACATGA	0.148
AGAAAACC	-0.184
GGAATACC	-0.265
GCTATTAA	0.117
TCACTTAA	0.00059
ATATTGAC	0.148
AAGCCCCT	-0.215
ACCATTAG	0.0481
GTAATACA	0.305
CGACGTTA	0.337
ACTACGGC	-0.0407
CAAGCGGC	-0.157
GACGCGGC	0.0974
ACTTGACA	0.26
CTCTTTAC	-0.0251
ATTGACCC	-0.125
ACTCAACG	0.182
ACTTAAGG	-0.0337
ACGGCGCT	-0.245
ATAGGTGG	-0.135
CAAATCAG	0.131
GGGGCCCA	-0.277
TACGACGA	0.117
GGCTCATA	-0.121

Sequence	PBM E-score
CTGATAGC	-0.0862
CATTCCGA	0.0454
CCTAAATA	0.0638
AGCACCTC	-0.152
ACCCCAAA	-0.0832
ATATTTCA	0.143
AACAAGGG	0.00333
AAACAAAC	0.0996
AAGATCTG	-0.0413
CTCCCAAA	-0.155
AAAATGGT	0.052
CGCATCAA	0.0565
ATGTCCTA	-0.00896
ACATCCCT	-0.0952
TGTAGGAA	-0.036
CACGTCCC	0.00358
AGGTTGAA	-0.00618
AAGAGCTG	-0.192
AAATACCG	0.0395
AGGCCCAA	-0.132
TTATAGAA	0.14
CGCCACAG	-0.198
CCTGTTTC	-0.132
CCGAAATA	0.199
ATTGAAAG	0.0132

Sequence	PBM E-score
AGCAGTCA	-0.132
ACTTTTGG	-0.00511
AAACCGTG	0.00279
CCTGCAGC	-0.09
CCGTTACA	0.0591
GCCGCATA	-0.00332
TATCCATA	0.107
TGCCAACA	-0.0861
TATCGGGA	-0.118
AAATAGAT	0.229
AGTTAGTG	0.0484
ACCGGCGA	-0.15
ACTGTGAT	0.0683
CTCTATAA	0.183
ATAAGCAC	0.0902
TACTGACA	0.103
CATATAGG	-0.074
AAACTATC	-0.0519
CTGGGTGC	-0.208
ACATCATC	0.43
GGCCAATA	-0.114
CGATTCCG	-0.142
AGCTTACA	0.163
CTCGTAGA	-0.217
GGGAGGAA	-0.152

Sequence	PBM E-score
TAGCGGCA	-0.0879
GAAGTGGA	-0.188
AAACCAGC	-0.185
TCCGGCGA	-0.0144
GACCTCCA	-0.271
CCGGACAA	-0.23
AACGCGGC	-0.139
GGAGTATA	0.11
CGGTCTTC	-0.218
GTGATCGA	0.103
CCCATGAG	-0.292
ATGAATGA	0.181
GGAAAGCC	-0.229
ATTGGCCA	-0.0321
TGGTGCAA	-0.0842
GTCCCTTA	-0.0334
AACGACGA	0.166
GAGAGCTA	-0.0177
GAAGATGA	0.169
ACCGTACA	0.0593
GTACGCCA	0.293
CTGACTAC	0.101
ACTAAACG	0.0963
CACCGCAC	-0.0956
GCATGGCA	-0.0913

Sequence	PBM E-score
CAGCTTGG	-0.268
ACGGGTAA	-0.0611
GCGAAACC	0.0131
AAAGGAAC	-0.0213
TCTATAGA	-0.114
GCGCCCAA	-0.172
CTAACCTC	-0.0769
GAGGCCCC	-0.481
AGGCCCAT	-0.288
CCGAGAGC	-0.255
ATTAGCAA	0.282
AAAGGTTA	-0.0111
ACCGCCGC	-0.142
ACCGCGTC	0.173
TATCGTAA	0.317
GGTGATAC	-0.104
AAAAGCAG	-0.0731
ACACGTGC	0.346
ATAAGGAC	0.0488
CAACGGTA	-0.123
CACAGCAG	-0.133
ACGGGAGC	-0.024

From the supplement of paper PMC3334620
